# Measurements published in article PMC4336329 (PLoS ONE, 2015).
# In all, about 310,000 compounds went through this assay and about 2,200 (0.71%) showed an effect of 50% or more. Effects have a minus sign here. This is one part of the list.
# Biological target: human ether-à-go-go-related gene (hERG) potassium channel (human, UniProt Q12809)
# Experiment: primary screen, population patch clamp on CHO cells stably expressing hERG
# Sequence of human ether-à-go-go-related gene (hERG) potassium channel (Q12809 whole entry, looked up): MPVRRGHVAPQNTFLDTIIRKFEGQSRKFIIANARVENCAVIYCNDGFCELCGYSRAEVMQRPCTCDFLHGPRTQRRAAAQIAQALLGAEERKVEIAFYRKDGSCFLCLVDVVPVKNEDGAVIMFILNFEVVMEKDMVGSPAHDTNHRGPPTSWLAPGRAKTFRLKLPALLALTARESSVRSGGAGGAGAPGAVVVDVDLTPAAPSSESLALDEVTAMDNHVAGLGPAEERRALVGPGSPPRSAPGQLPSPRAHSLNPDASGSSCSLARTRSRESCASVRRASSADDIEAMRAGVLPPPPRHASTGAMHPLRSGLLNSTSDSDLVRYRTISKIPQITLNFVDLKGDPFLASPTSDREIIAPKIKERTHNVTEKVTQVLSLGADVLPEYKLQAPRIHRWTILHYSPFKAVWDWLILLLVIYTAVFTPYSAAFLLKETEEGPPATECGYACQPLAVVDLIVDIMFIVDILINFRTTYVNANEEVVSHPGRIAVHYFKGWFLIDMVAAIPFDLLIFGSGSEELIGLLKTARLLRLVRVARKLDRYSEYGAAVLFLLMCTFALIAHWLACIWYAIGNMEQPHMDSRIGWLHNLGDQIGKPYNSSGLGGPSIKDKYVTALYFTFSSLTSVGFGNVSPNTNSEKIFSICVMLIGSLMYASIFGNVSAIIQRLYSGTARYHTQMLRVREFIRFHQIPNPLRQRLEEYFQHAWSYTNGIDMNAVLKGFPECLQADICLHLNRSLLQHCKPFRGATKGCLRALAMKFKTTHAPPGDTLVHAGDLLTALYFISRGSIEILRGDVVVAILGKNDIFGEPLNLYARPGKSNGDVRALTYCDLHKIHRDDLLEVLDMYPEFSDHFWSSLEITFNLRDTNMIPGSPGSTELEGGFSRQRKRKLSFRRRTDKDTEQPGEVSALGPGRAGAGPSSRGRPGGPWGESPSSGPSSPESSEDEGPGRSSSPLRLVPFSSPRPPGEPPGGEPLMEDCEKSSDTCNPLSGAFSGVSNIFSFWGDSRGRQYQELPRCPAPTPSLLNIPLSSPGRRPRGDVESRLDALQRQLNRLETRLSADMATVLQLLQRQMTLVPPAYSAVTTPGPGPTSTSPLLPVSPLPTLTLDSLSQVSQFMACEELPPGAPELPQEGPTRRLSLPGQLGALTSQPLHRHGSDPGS
row,Compound,"hERG current change (%, negative = inhibition) at 1uM [%]"
1,COc1ccc(CSc2ccc(-c3nc4ccccn4c3NCc3ccccc3)cc2OC)cc1.O=C(O)C(F)(F)F,7.84
2,CC(C)C[C@H](NC(=O)c1nc[nH]c1C(=O)N[C@@H](CC(C)C)C(=O)OC(C)(C)C)C(=O)OC(C)(C)C,17.6
3,COC(=O)c1ccc(NC(=O)CSc2n[nH]c(-c3ccncc3)n2)cc1,9.54
4,C=C1c2cccc(O)c2C(O)=C2C(=O)[C@]3(O)C(O)=C(C(N)=O)C(=O)[C@@H](N(C)C)[C@@H]3[C@@H](O)[C@H]12.Cl,14.4
5,O=[N+]([O-])c1ccc(-c2c(O)c3ccccc3c3nc4ccccc4nc23)cc1,15.2
6,CN(Cc1ccccc1F)Cc1cc(=O)oc2cc(O)c(Cl)cc12,13.8
7,Cc1cccc(NC(=O)N2CCCC2C(=O)Nc2ccccc2)c1 (stereo not shown),8.57
8,COc1ccccc1C(=O)NNC1=NS(=O)(=O)c2ccccc21,17.8
9,Cc1ccc(S(=O)(=O)N2CCC(C(=O)OCC(=O)NCc3ccco3)CC2)cc1C,-1.32
10,COc1ccc(N(CC(=O)NCCC2=CCCCC2)S(=O)(=O)c2ccccc2)c(OC)c1,6.59
11,CCOC(=O)Cn1c(SC)nc2sc3c(c2c1=O)CC(C)(C)OC3,10.6
12,CCn1nc(C)c(/C=N/NC(=O)c2nc3nc(C)cc(C)n3n2)c1C,9.71
13,O=C(CCC(=O)N1CCN(c2ccccc2F)CC1)N1CCN(c2ccccc2)CC1,-2.67
14,O=C(CN1CCN(C(=O)N2CCCCC2)CC1)Nc1ccc(F)cc1,-76.5
15,Cc1ccc(C)c(Cn2nnc(C(=O)Nc3ccc4c(c3)OCCO4)c2N)c1,8.89
16,C[C@@H](C(=O)OCn1nnc2ccccc2c1=O)N1C(=O)C2CCCCC2C1=O (stereo partly shown),9.74
17,CCOc1ccc(CC(=O)N/N=C(\C)c2cccnc2)cc1OCC,8.19
18,COc1cccc(NC(=O)Nc2ccc(Cc3ccncc3)cc2)c1,15.6
19,CCOC(=O)C1CCN(C(=O)N(CC)CC)CC1,3.77
20,COc1cc(-c2cc(-c3ccccc3)nc(SCC(=O)Nc3nccs3)c2C#N)cc(OC)c1OC,0.652
21,Cc1ccc(C)c(Cn2nnc3c(=O)[nH]c(C4CCCN(C(=O)C5CCCCC5)C4)nc32)c1 (stereo not shown),-20.7
22,Cc1onc(-c2ccccc2Cl)c1C(=O)N(C)C1CCCCC1,6.24
23,CCOC(=O)CCCNC(=O)COC(=O)c1cc(C)cc(C)c1,10.5
24,CC(=O)OC1OCCOC1NC(=S)Nc1ccc(C)cc1 (stereo not shown),8.06
25,COc1ccc(C)cc1NC(=O)C(OC(=O)c1cnccn1)c1ccccc1 (stereo not shown),-2.84
26,O=C(CSCc1ccc(C(=O)O)cc1)Nc1ccccc1,9.46

row,Compound,"hERG current change (%, negative = inhibition) at 1uM [%]"
1,CCc1nnc(NS(=O)(=O)c2ccc(NC(=O)c3ccccc3O)cc2)s1,10.2
2,COc1cccc(N(C(=O)Cc2cccs2)C(C(=O)NC2CCCC2)c2ccncc2)c1 (stereo not shown),14.6
3,COc1ccc(/C=C(/NC(=O)c2ccco2)C(=O)Nc2cccc(C(=O)O)c2)cc1,15.9
4,CCSc1nnc(NC(=O)C2C3CCC(C3)C2C(=O)O)s1 (stereo not shown),7.47
5,CS(=O)(=O)c1ccc(NC(=O)c2cccc(S(=O)(=O)N3CCN(Cc4ccccc4)CC3)c2)cc1,5.09
6,C#CCOc1c(Br)cc(/C=N/O)cc1OCC,7.1
7,CC(Nc1cc(C)cc(C)c1)=[N+](C)CCNS(=O)(=O)c1ccc(Cl)cc1.[I-],-15.8
8,CC(SCC(=O)Nc1ccc(S(=O)(=O)N2CCCCC2)cc1)C(=O)O (stereo not shown),7.05
9,CCOc1ccccc1OCC(=O)Nc1cc(S(=O)(=O)N2CCCCC2)ccc1OC,-2.62
10,CCOC(=O)N1CCN(C(=O)C(NC(=O)c2ccc(C(C)(C)C)cc2)C(C)C)CC1 (stereo not shown),-2.48
11,O=C(Cc1ccc(-n2c(=O)c3ccccc3n(Cc3ccccc3F)c2=O)cc1)NCC1CCCO1 (stereo not shown),5.51
12,CC(CN1CCCCC1)OC(=O)c1cccc(F)c1.Cl (stereo not shown),9.48
13,COc1cccc(-n2c(SCC(=O)N3CCOCC3)nc3c([nH]c4ccccc43)c2=O)c1,-3.04
14,Cc1ccc(-c2nc(C3CCN(S(=O)(=O)c4ccc(C(F)(F)F)cc4)CC3)no2)cc1,8.97
15,O=C1CCC(C(=O)OCC(=O)N2N=C3/C(=C/c4ccccc4)CCCC3C2c2ccccc2)N1 (stereo not shown),-1.66
16,CCC(CC)c1nnc(NC(=O)c2cc(-c3ccccc3)nc3ccccc23)s1,10.3
17,Cn1ccs/c1=N\S(=O)(=O)c1ccc(C(C)(C)C)cc1,12
18,CCOc1ccc(-c2cc(C(=O)NCCCn3ccnc3)c3ccccc3n2)cc1,4.41
19,Cn1c(=O)oc2cc(S(=O)(=O)N3CCc4ccccc4C3)ccc21,13.2
20,CCCCC1=CC2=CC(=O)C(C)(OC(=O)CC)C(=O)C2=CN1Cc1ccc2c(c1)OCO2 (stereo not shown),-0.198
21,CN1CCc2c(C#N)c(N3CCCCC3)nc(N3CCOCC3)c2C1,-10.7
22,NC(=O)c1cc(NC(=O)CCNS(=O)(=O)c2cccc(C(F)(F)F)c2)cc(C(N)=O)c1,6.43
23,C/C(=N\Nc1ccc(F)cc1F)c1ccc(Br)s1,4.35
24,CCOc1ccc(NC(=S)NC(=O)Cc2ccccc2)cc1,17.8
25,COc1cccc(-c2nn(-c3ccccc3)cc2CNC(C)Cn2cncn2)c1 (stereo not shown),-6.83
26,COc1cc(NC(=O)CCCNC(=O)c2ccc(Cl)cc2)cc(OC)c1OC,11.6
